Results published in PMC4336329 (PLoS ONE, 2015).
The campaign covered roughly 310,000 compounds. About 2,200 (0.71%) showed an effect of 50% or more. Effects have a minus sign here. The list shows a part of the results.

molecular target: human ether-à-go-go-related gene (hERG) potassium channel (human, UniProt Q12809); assay: primary screen, population patch clamp on CHO cells stably expressing hERG
Sequence (Q12809 whole entry, looked up): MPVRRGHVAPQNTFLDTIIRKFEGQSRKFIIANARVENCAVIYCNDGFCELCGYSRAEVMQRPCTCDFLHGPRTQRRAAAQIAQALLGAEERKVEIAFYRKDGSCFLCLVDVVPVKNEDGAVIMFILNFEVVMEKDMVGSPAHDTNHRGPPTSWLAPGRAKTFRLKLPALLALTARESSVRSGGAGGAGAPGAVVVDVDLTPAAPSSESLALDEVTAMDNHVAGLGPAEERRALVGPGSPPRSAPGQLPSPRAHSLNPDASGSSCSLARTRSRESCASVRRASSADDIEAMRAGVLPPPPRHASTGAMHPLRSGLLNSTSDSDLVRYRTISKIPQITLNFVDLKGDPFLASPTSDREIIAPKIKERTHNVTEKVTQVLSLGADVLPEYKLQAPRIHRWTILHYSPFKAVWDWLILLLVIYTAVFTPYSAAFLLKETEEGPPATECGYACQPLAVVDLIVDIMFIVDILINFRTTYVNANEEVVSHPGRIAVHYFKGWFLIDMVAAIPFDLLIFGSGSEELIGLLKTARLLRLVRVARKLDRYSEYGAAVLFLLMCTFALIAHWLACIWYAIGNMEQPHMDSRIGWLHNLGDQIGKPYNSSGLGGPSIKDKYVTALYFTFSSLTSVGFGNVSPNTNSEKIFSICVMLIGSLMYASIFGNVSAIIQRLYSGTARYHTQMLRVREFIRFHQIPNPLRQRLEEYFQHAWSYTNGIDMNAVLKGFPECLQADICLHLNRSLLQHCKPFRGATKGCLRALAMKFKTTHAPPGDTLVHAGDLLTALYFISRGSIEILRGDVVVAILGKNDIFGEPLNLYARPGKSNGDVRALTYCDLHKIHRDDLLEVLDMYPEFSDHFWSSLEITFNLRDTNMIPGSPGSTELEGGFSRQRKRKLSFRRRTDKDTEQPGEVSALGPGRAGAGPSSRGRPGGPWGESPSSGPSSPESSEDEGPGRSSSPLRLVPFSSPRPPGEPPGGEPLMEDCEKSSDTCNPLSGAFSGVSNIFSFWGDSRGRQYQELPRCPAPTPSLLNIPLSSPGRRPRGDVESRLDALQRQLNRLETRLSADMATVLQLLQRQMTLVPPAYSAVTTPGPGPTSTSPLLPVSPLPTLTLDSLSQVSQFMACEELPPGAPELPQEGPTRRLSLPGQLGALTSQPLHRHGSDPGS

SMILES | hERG current change (%, negative = inhibition) at 1uM [%]
COc1ccccc1CNC(=O)CCn1c(=O)[nH]c2ccsc2c1=O | 5.2
Cc1ccc(/C=C/c2ccc(=O)n(Cc3ccc(F)cc3)n2)cc1 | 2.51
COc1ccc(/C=C2/Sc3ccc(C(=O)N4CCc5ccccc5C4)cc3NC2=O)cc1 | 6.99
CC(=O)Nc1nc(-c2ccccc2)nc(C)c1C(C)=O | 1.51
Cc1cc(C)cc(NC(=O)C2(c3cccs3)CCOCC2)c1 | 17.5
Cc1nc(CNS(=O)(=O)c2ccc3c(c2)OCCO3)cs1 | 7.4
C/C(=N\NC(=O)C(=O)Nc1c(C)n(C)n(-c2ccccc2)c1=O)c1ccncc1 | -1.04
O=C(N/C(=C\c1cccs1)C(=O)N1CCOCC1)c1ccco1 | -2.36
CN(C)c1ccc(C2N(C)C(=O)c3ccccc3N2C)cc1 (centres unmarked) | 9.2
O=C(NC1CCN(S(=O)(=O)c2ccc(F)cc2)CC1)c1ccco1 | 16.1
Cc1cccc(N2CCN(C(=O)CSc3nc4ccccc4nc3N3CC(C)OC(C)C3)CC2)c1C (centres unmarked) | 10.2
O=C(NCC1COc2ccccc2O1)C1CCN(S(=O)(=O)c2cccc3nsnc23)CC1 (centres unmarked) | 13.3
O=C(Nc1cccc(S(=O)(=O)N2CCCCC2)c1)C1CCCN1S(=O)(=O)c1ccccc1F (centres unmarked) | -5.15
C/C=C/C(=O)Nc1ccccc1Br | 10.8
COc1cc(OC)c(C(=O)OCC(=O)Nc2nnc(-c3ccccc3)o2)cc1OC | 11.5
CC(=O)ON1C(C)(C)CC(OC(=O)c2ccccc2)CC1(C)C | 15.3
Cc1ccc(C)c(S(=O)(=O)NCCCN2CCOCC2)c1 | 11.7
Nc1cc2nc3ccccc3oc-2cc1=O | 11.2
COc1ccc([C@H]2CC(=O)C=C(c3ccc(C)c([N+](=O)[O-])c3)C2)cc1 | 24
COc1ccc(C[C@](C)(N)C(=O)O)cc1OC.Cl | 8.83
O=C(Cc1ccccc1)Nc1c2c(nn1-c1cccc(Cl)c1)CS(=O)(=O)C2 | -38.4
Cc1cnc(NC(=O)C2CCCC2)s1 | 23.1

SMILES | hERG current change (%, negative = inhibition) at 1uM [%]
COc1ccc(C2C(C#N)=C(N)Oc3cc(C)n(CCN4CCOCC4)c(=O)c32)cc1OC (centres unmarked) | 0.544
COc1ccc(OC)c(NC(=O)CCNS(=O)(=O)c2cccc3nsnc23)c1 | 8.18
Cc1ccc(C(=O)N2CCCC(C(=O)Nc3cccc(-c4ccc(F)cc4)c3)C2)cn1 (centres unmarked) | 7.01
CC(Sc1nc(-c2ccccc2)cc(C(F)(F)F)n1)C(=O)N1CCOCC1 (centres unmarked) | 10.8
O=C(CSc1nnc2ccccn12)NC(=O)c1ccccc1 | -1.43
O=C(Nc1c(C(=O)N2CCOCC2)cnn1-c1ccccc1)c1ccc([N+](=O)[O-])cc1 | 10.5
CC(C)[C@H](NC(=O)[C@@H]1Cc2c([nH]c3ccccc23)C2c3ccccc3C(=O)N21)C(=O)N1CCC[C@@H]1C(=O)O (some centres unmarked) | 14
COC(CNC(=O)c1cc(S(=O)(=O)N2CCc3ccccc32)ccc1F)OC | 18.2
COC(=O)c1ccc(COc2ccc(C#N)cc2)o1 | 11.1
CC(=O)Nc1nc2c(F)cccc2s1 | 8.54
CC(=O)N1CCc2cc(S(=O)(=O)NC(C(=O)NC(C)c3ccccc3)C(C)C)ccc21 (centres unmarked) | 13
CC1(C)CC(=O)C=C(NC2CCCCC2)C1 | 11.4
CCc1ccc(C2C(C#N)=C(N)Oc3cc(N)ccc32)cc1 (centres unmarked) | 7.36
CCc1ccc(NC(=O)C(C)OC(=O)/C=C/c2cccc([N+](=O)[O-])c2)cc1 (centres unmarked) | -4.46
Cc1cc(Cl)ccc1OCC(=O)N[C@@H](Cc1ccccc1)c1nc2ccccc2[nH]1 | -11
Cc1ccc(NC(=O)Nc2ccccc2CC[N+](=O)[O-])cc1 | 13.1
Cc1cc(Cl)ccc1OCC(=O)NNC(=O)C1CCN(c2ncnc3sc(C)c(C)c23)CC1 | 11
CCNC(=O)/C(=C/c1ccco1)NC(=O)/C=C/c1ccccc1 | 14.4
COc1cccc2c1[C@@H]1CN(CCCCn3c(=O)[nH]c4c(sc5ncc(-c6ccccc6)nc54)c3=O)C[C@@H]1CO2.Cl | 5.05
COc1ccc(OC)c(NC(=O)CSc2nnc(Cc3cccn3C)n2-c2ccc(F)cc2)c1 | -0.0502
O=[N+]([O-])c1ccc(Cl)c(-c2ccc(/C=N/c3c(-c4ccco4)nc4ccccn34)o2)c1 | 2.54
Cc1ccc(CNC(=O)Cn2cnc(S(=O)(=O)N3CCCCC3)c2)o1 | -0.534
